Assays:
[1] = system: NUGC-4 cell line; test: Cytotoxicity (CellTiter-Glo cell viability), NUGC-4; format: cell-based; settings: NUGC4 (CLDN18.2+), gastric cancer
Experimental: (§1) To measure cell viability in cytotoxicity experiments, the measurement of luminescence using GloMax® Discover was used, and the measurement method was according to the equipment manual.
(§2) Four types of cell lines (MIA PaCa-2˜CLDN18.2, PATU8988S, parental MIA PaCa-2 (CLDN18.2-), SNU601, NUGC-4, and AGS) were prepared. At this time, MIA PaCa-2˜CLDN18.2 and PATU8988S are CLDN18.2-positive pancreatic cancer cell lines. MIA PaCa-2 (CLDN18.2-) is a CLDN18.2-negative pancreatic cancer cell line. SNU601 and NUGC-4 are CLDN18.2-positive gastric cancer cell lines. AGS is a CLDN18.2-negative gastric cancer cell line.
(§3) The prepared cell lines were cultured in DMEM containing 10% FBS and 1% penicillin/streptomycin (MIA PaCa-2˜CLDN18.2, MIA PaCa-2 (CLDN18.2-)), RPMI1640 containing 10% FBS and 1% penicillin/streptomycin (SNU601, NUGC-4, and AGS), and DMEM containing 5% FBS, 5% horse serum, 1% penicillin/streptomycin, and […] L-glutamine (PATU8988S) in an incubator under the conditions of 37° C. and 5% CO2. […]
(§4) Changes in cell viability according to treatment of each test substance were measured using the same method as the CellTiter-Glo manual.
(§5) The measured results were used for a regression analysis in GraphPad PRISM® 9.0 software to calculate IC50. The cytotoxicity of each test substance was evaluated based on the calculated values.

[2] = molecular target: T1, claudin18.2 protein (CLDN18.2) (Homo sapiens, UniProt P56856); test: Cell-based ELISA binding to Claudin18.2 CHO-K1 cells; settings: CLDN18.2-CHO-K1, OD at 450 nm
T1 construct: purchased CUSABIO TECHNOLOGY LLC CSB-MP005498HU (A5)
Experimental: OD value measurement through ELISA was performed by measuring the absorbance at 450 nm using a UV-Vis spectrometer.
A CHO-K1 cell line (hereinafter, referred to as “Claudin18.1 CHO-K1”) into which a gene (SEQ ID NO: 18) encoding the claudin18.1 protein (CLDN18.1) was transiently transfected, a CHO-K1 cell line (hereinafter, referred to as “Claudin18.2 CHO-K1”) into which a gene (SEQ ID NO: 19) encoding the claudin18.2 protein (CLDN18.2) was transiently transfected, and a CHO-K1 cell line (hereinafter, referred to as “MOCK CHO-K1”) into which only a NOCK vector (empty vector) was transiently transfected were prepared. At this time, a pcDNA3.1 vector was used for Claudin18.1 CHO-K1, and a pcDNA3.1 (+) vector was used for Claudin18.2 CHO-K1. […]
Transient transfection was performed according to the TransIT2020 manual, the transfected cells were plated on a 96-well plate for culture, and then treated with each of antibody-A and ADC-A. Thereafter, cell-based enzyme-linked immunosorbent assay (ELISA) was performed, and optical density (OD) values were measured.
The measured results were used for a regression analysis using GraphPad PRISM® 9.0 software to calculate EC50 and Bmax. The cell binding affinity of antibody-A and ADC-A was evaluated based on the calculated values.

[3] = system: MIA PaCa-2˜CLDN18.2 cell line; test: Cytotoxicity (CellTiter-Glo cell viability), MIA PaCa-2˜CLDN18.2; format: cell-based; settings: pancreatic cancer
Experimental: as §1, §2, §3, §4, §5

B1: Antibody-A: anti-claudin18.2 antibody with heavy chain of SEQ ID NO: 16 and light chain of SEQ ID NO: 17 (antibody)
heavy: QVQLVESGGGVVQPGRSLRLSCAASGFSLTTYGVHWVRQAPGKGLEWVAVIWAGGSTNYNSALMSRFTISRDNSKNTLYLQMNSLRAEDTAVYYCARAAYYGNGLDYWGQGTMVTVSS[… human IgG1 constant region …]
light: DIVMTQSPLSLPVTPGEPASISCKSSQTLLNSGNQKNYLTWYLQKPGQSPQLLIYWASTGESGVPDRFSGSGSGTDFTLKISRVEAEDVGVYYCQNAYFYPFTFGGGTKVEIKRTVAAPSVFIFPPSDEQLKSGTASVVCLLNNFYPREAKVQWKVDNALQSGNSQESVTEQDSKDSTYSLSSTLTLSKADYEKHKVYACEVTHQGLSSPVTKSFNRGEC
modifications: heavy chain of Claudin18.2 antibody; light chain of Claudin18.2 antibody
IC50 [1]: > 66.7 nM | Bmax [2]: 1.149 | IC50 [3]: > 66.7 nM
